According to PubChem BioAssay:
Inconclusive results, whose numbers are uncertain, are shown with a selection of clear calls. Active and inactive are the calls of the source.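 Rule for the calls: active = thallium flux slope beyond 3 SD from same-plate DMSO control mean in most replicates, usually higher, sometimes lower; inconclusive = repeat tests gave conflicting results; inactive = no significant difference from controls in most replicates.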

Molecular target: Solute carrier family 12 member 5 (Homo sapiens) (UniProt Q9H2X9)
Chain of UniProt Q9H2X9 (Q9H2X9 whole entry, looked up): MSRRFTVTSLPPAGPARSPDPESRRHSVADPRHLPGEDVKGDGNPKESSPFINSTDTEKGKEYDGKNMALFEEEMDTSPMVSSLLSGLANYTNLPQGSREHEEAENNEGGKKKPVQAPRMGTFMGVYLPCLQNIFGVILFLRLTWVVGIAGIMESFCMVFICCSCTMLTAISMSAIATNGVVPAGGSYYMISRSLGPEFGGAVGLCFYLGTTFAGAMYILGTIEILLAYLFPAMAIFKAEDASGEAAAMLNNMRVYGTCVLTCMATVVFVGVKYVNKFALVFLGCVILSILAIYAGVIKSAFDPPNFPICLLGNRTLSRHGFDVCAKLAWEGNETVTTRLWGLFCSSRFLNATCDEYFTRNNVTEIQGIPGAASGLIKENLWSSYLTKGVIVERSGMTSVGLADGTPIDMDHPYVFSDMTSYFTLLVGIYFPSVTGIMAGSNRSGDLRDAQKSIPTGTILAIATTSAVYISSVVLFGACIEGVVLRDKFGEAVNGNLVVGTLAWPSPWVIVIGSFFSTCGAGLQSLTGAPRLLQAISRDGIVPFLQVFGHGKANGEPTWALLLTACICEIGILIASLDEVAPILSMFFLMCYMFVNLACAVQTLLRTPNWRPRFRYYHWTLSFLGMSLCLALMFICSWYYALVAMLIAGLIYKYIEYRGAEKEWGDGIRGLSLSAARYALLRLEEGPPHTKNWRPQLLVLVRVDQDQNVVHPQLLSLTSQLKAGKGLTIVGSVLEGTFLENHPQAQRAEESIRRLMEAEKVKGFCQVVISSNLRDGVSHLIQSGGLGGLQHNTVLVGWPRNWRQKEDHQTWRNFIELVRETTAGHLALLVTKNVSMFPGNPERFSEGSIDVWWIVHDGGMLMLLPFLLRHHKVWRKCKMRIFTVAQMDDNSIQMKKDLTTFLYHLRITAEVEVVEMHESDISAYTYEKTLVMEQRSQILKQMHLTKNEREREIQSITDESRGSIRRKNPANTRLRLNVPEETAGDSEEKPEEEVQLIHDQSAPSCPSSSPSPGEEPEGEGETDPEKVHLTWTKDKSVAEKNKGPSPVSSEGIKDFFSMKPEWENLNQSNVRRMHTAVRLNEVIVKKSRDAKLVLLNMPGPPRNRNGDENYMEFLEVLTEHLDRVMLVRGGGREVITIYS
Assay: modulation of KCC2 thallium flux in HEK cells – cell-based, ouabain, retest, confirmation (AID 1717);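 note: slope of initial-normalized fluorescence between seconds 10 and 20 after thallium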
Settings: HEK293-KCC2, thallium flux FluoZin2 fluorescence, at 10 µM, bidirectional: low = inhibitor, high = activator

SMILES	raw Tl+ flux slope (below DMSO = inhibition, above = activation)
O=C(CSc1nnnn1Cc1ccccc1)c1ccccc1	inconclusive: 0.0162
CC(=O)NC(=S)NNC(=O)c1ccc(Br)cc1	inconclusive: 0.0243
Cc1cccc(C(=O)N/N=C/c2cc(Br)c(Br)o2)c1	inconclusive: 0.0265
Cc1ccc(-c2n[nH]c(=S)n2/N=C/C=C\c2ccccc2[N+](=O)[O-])cc1	inconclusive: 0.0229
CCOc1ccc(/C=C2\SC(=S)N(NS(=O)(=O)c3ccc(C)cc3)C2=O)cc1OC	inconclusive: 0.0262
C=CCn1c(=S)[nH]c2sccc2c1=O	inconclusive: 0.0257
Fc1ccc(-c2n[nH]c(=S)c3ccccc23)cc1	inconclusive: 0.0279
Cc1ccc2sc(NNC(=O)C3COc4ccccc4O3)nc2c1C (stereo not given)	inconclusive: 0.0341
COc1ccc2c(c1)C(=O)[C@@H](O)[C@H](c1ccc(OC)c(Br)c1)O2	inconclusive: 0.0214
Cc1ccc(C2CC2c2n[nH]c(=S)n2-c2cccc(Cl)c2)cc1 (stereo not given)	inconclusive: 0.0232
CCc1ccc(-n2c(SCC(=O)c3ccc4c(c3)NC(=O)CO4)nc3ccccc3c2=O)cc1	inconclusive: 0.0239
CC1=CC(C)(C)n2c(O)c(N=NC(N)=S)c3cc(C)cc1c32	inconclusive: 0.0326
Cc1cccc(NC(=O)Nc2ccc(C)c(C)c2)n1	inactive: 0.0206
CC(=O)N1CCCc2cc(S(=O)(=O)N(C)Cc3ccccc3)ccc21	inconclusive: 0.0169
COc1cc(OC)cc(C(C(=O)NCc2ccccc2)N(Cc2ccco2)C(=O)c2ccno2)c1 (stereo not given)	inactive: 0.0188
Cc1cccc(NC(=S)NNC(=O)c2ccccc2OC(F)F)c1	inconclusive: 0.0298
O=C(NC(=S)N1CCc2ccccc21)C1CCC1	inconclusive: 0.0294
C/C(=N\NC(=S)NCc1ccccc1)c1ccc(C)o1	inconclusive: 0.0231
O=c1[nH]c(-c2ccccn2)nc2sc(-c3ccccc3)cc12	inconclusive: 0.0221
CNC(=S)N/N=C(\C)c1ccc(C(C)(C)C)cc1	inconclusive: 0.0246

SMILES	raw Tl+ flux slope (below DMSO = inhibition, above = activation)
O=C(O)Cc1ccc(NC(=S)Nc2cccc(Cl)c2Cl)cc1	inconclusive: 0.0241
O=C(N/N=C/c1ccc(-c2cccc(C(F)(F)F)c2)o1)c1ccccc1O	inconclusive: 0.0297
N#Cc1nc(Cc2cccc3ccccc23)oc1NCCN1CCOCC1	inconclusive: 0.0153
CC(C)Cn1c(-c2csc3ccccc23)n[nH]c1=S	inconclusive: 0.0258
CCOC(=O)COc1cc(-n2c(=S)[nH]c3ccccc3c2=O)c(Cl)cc1Cl	inconclusive: 0.0264
Cc1cc2cc(CNC(=O)c3ccc(C)c([N+](=O)[O-])c3)ccc2[nH]1	inconclusive: 0.017
O=C(Nc1nnc(C2CC2)o1)c1ccc(S(=O)(=O)N2CCCc3ccccc32)cc1	inconclusive: 0.0294
Cc1ccc(C2=CSC3=NNC4(CCCCC4)NN23)cc1	inconclusive: 0.0174
Oc1c(C=Nc2ccccc2)sc2ccccc12	inconclusive: 0.0194
CC(C)Cn1c(SCC(=O)Nc2cccc(S(N)(=O)=O)c2)nc2ccccc2c1=O	inconclusive: 0.0252
CC(c1ccc(F)cc1)n1c(-c2cccs2)n[nH]c1=S (stereo not given)	inconclusive: 0.0243
CC(/C=C1\SC(=S)N(C(C(=O)O)C(C)C)C1=O)=C\c1ccccc1 (stereo not given)	inconclusive: 0.0157
C/C(=N\NC(=O)c1ccc(Br)cc1)c1ccccc1	inconclusive: 0.0234
CC1Cc2ccccc2N1C(=O)CN(C)S(=O)(=O)c1cccc2cccnc12 (stereo not given)	inconclusive: 0.0161
COc1cccc(-c2nc(CS(=O)(=O)CC(=O)NCc3ccccc3)c(C)o2)c1	inconclusive: 0.0175
O=C(NCc1ccccn1)c1cc(S(=O)(=O)N2CCN(c3ccccc3)CC2)ccc1Cl	inconclusive: 0.0175
Fc1ccc(N2CCN(C(=S)NCC3CCCO3)CC2)cc1 (stereo not given)	inconclusive: 0.016
O=C(Nc1ccccc1C(=O)N/N=C/c1ccco1)c1ccc(F)cc1	inconclusive: 0.0312
Fc1ccccc1NC(=S)NNc1ncc(C(F)(F)F)cc1Cl	inconclusive: 0.041
O=C(Nc1nnc(-c2ccccc2Cl)o1)c1cc2cc([N+](=O)[O-])ccc2s1	inconclusive: 0.0249
